# PubChem BioAssay AID1508642 (National Center for Advancing Translational Sciences (NCATS), 2021)
# Out of some 43,000 compounds screened, about 200 (0.47%) were called active. Not shown: some 12% with an inconclusive outcome. The call rests on the fitted dose curve; in most records, active means well fitted cell-killing curve with a large enough effect; inconclusive means small, poorly fitted or top-dose-only effect, or effect the other way; inactive means flat fitted curve, though single readings scatter. The list shows a part of the results.
# Experiment: Cell viability qHTS assay in S16 Pmp22-F2sN cells; further: nearly all actives have a fitted effect of over 65% in size
# Conditions: S16 Pmp22-F2sN Schwann cells (luciferase reporters placed in the Pmp22 gene) viability, CellTiter-Glo, 24 h; series mostly up to 57.5 µM; activity change, negative = cytotoxicity: at the top concentration
# In short: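 Luminescence from CellTiter-Glo, read by CCD camera after a 15 min room-temperature incubation, served as the viability signal. Reporter Schwann cells (S16 Pmp22-F2sN) had been treated with pin-transferred compounds for 24 h at 37C.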
# On the % scale 0 is the no-effect control and ±100 the full control effect; potency means the concentration at half of the fitted maximal effect.
Compound,"activity change, negative = cytotoxicity",Potency
COc1ccc(S(=O)(=O)n2nc(-c3ccco3)nc2NCc2ccc(C(C)C)cc2)cc1,inactive: 3.61%,–
CCOc1ccc(NC(=O)c2nc(S(=O)(=O)Cc3ccccc3F)ncc2Cl)cc1,–,active: 5.01 µM
CCc1ccc(-c2nc3cc(NC(=O)c4ccc(C)c(C)c4)ccc3o2)cc1,inactive: -8.48%,–
CCc1nnc2c3ccccc3nc(Nc3cc(C)cc(C)c3)n12,inactive: 0.967%,–
CC(=O)NCCNC(=O)CCCc1nnc2n(CC(C)C)c(=O)c3sccc3n12,inactive: 0.0057%,–
COc1ccc(-c2cc(-c3nc(-c4cc(OC)c(OC)c(OC)c4)no3)[nH]n2)c(OC)c1,inactive: -18.1%,–
COc1cccc(NC(=O)Cn2c(=O)n(Cc3ccc(F)cc3)c(=O)c3sc4ccccc4c32)c1,inactive: 0.629%,–
CCOc1ccc(C(=O)Nc2ccc(OCc3cc(=O)n4cccc(C)c4n3)cc2)cc1,inactive: 4.32%,–
COc1ccc(CNC(=O)CCc2c(C)nc3cc(-c4ccc(OC)cc4OC)nn3c2C)cc1,inactive: 6.43%,–
CCOc1ccc2nc(N3CCCC(C(=O)Nc4ccccc4CC)C3)sc2c1 (stereo not given),inactive: -3.96%,–
CCc1ccc(NC(=O)CSc2nc(-c3ccc(C)cc3)nc3c2Cc2c(CO)cnc(C)c2O3)cc1,inactive: -0.186%,–
CCOC(=O)c1cc(-c2ccc(F)cc2)n(CCC(=O)NC2CCC(C)CC2)c1C (stereo not given),inactive: -20.9%,–
Cc1cccc(NC(=O)Cn2c(=O)n(CC3CCC(C(=O)NCCc4ccccc4)CC3)c(=O)c3ccccc32)c1 (stereo not given),inactive: 21.1%,–
Fc1ccc(-c2cc(-c3ccc(F)cc3)c3c(n2)-c2cc(F)ccc2OC3)cc1,inactive: 11.6%,–
Fc1ccc(Nc2nc(-c3cccc(Cl)c3)c3c(n2)-c2ccccc2OC3)c(F)c1,inactive: -2.85%,–
CC(CC(=O)Nc1ccc(F)cc1)S(=O)(=O)c1cc2c3c(c1)CCN3C(=O)CC2 (stereo not given),inactive: 8.47%,–
COc1ccc(N2CCN(C(=O)C(CC(C)C)NS(=O)(=O)c3ccc4nc(C)sc4c3)CC2)cc1 (stereo not given),inactive: 1.27%,–
CNc1ccc(-c2nc(-c3ccncc3)no2)cc1[N+](=O)[O-],inactive: 4.4%,–
O=C(NC1CCCCC1)c1ccc2c(c1)N(Cc1cccc(Cl)c1)C(=O)c1ccccc1S2(=O)=O,inactive: -2.15%,–
Cc1ccc(CNc2cc(C)nc3nc(-c4ccc(C)cc4)nn23)cc1,inactive: 18.5%,–
COC(=O)c1ccccc1NC(=O)CSc1nc2ccccc2nc1Cc1ccc(F)cc1,inactive: 2.52%,–
O=C(Nc1cc(-c2cccc(Cl)c2)nn1-c1ccccc1)c1ccccc1F,inactive: 12.8%,–
CCS(=O)(=O)c1ncc(N(Cc2ccccc2)Cc2ccco2)c(C(=O)Nc2ccccc2C)n1,inactive: -3.73%,–
Cc1nnc(NC(=O)CSc2nccn2Cc2ccccc2)s1,inactive: 3.1%,–
CSCCC(NS(=O)(=O)c1ccc2c(c1)oc(=O)n2C)C(=O)NCc1ccc(Cl)cc1 (stereo not given),inactive: -3.5%,–
